# This is one part of the list.
# B1: Epa3 (Candida glabrata), Q6VBI8_CANGB (protein)
# chain: MGSSHHHHHHSSGLVPRGSHMNDLGFSLFEKRELSSQNPFGYPIGCSPQDVAIIPGLTMELYSYPIVSGTPPNCYDASYVDPEYPRTGYLKRKMVGKSTGVTGNLNYKYSVEKACMVKYGNLPAGYNYNEPLTVSNFTMILYGYFKAQTTGLHTFFVNADDLLYINFGAGNAFDCCKREDSKTKLGEYVAYDIWHVDSSKNKVSLFLEKDLYYPIRMFFNNIGKDSSLDLSFSVNGATDQISDFSGYLYSVPDQPDTCPAHIGYDTTCR
# Assays:
# Test in all cases: glycan array binding signal (z-score within array); higher = stronger binding
# Conditions in all cases: glycan notation: IUPAC condensed, linker removed
# [1] = molecular target: Neu5Ac(a2-3)Gal(b1-4)GlcNAc(b1-3)[Neu5Ac(a2-3)Gal(b1-4)GlcNAc(b1-6)]GalNAc
# Procedure, shortened: (§1)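 Glycan array data came from 3228 arrays in the Consortium for Functional Glycomics database, and only arrays with an available protein sequence were kept. Glycan names were put into IUPAC-condensed notation, and columns mapping to the same glycan were averaged. The binding signal is a within-array Z-score, averaged across arrays of one protein sequence run at different concentrations or buffers and across linkers. A negative Z-score can be read as non-binding.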
# [2] = molecular target: Neu5Ac(a2-3)Gal(b1-4)GlcNAc(b1-6)GalNAc
# Procedure, shortened: as §1
# [3] = molecular target: Neu5Ac(a2-3)Gal(b1-4)GlcNAc(b1-6)[Gal(b1-3)]GalNAc
# Procedure, shortened: as §1
# [4] = molecular target: Neu5Ac(a2-3)Gal(b1-4)GlcNAc(b1-6)[Neu5Ac(a2-3)Gal(b1-3)]GalNAc
# Procedure, shortened: as §1
# [5] = molecular target: Neu5Ac(a2-3)Gal(b1-4)GlcNAc6S
# Procedure, shortened: as §1
# [6] = molecular target: Neu5Ac(a2-3)Gal(b1-4)[Fuc(a1-3)]GlcNAc
# Procedure, shortened: as §1
# [7] = molecular target: Neu5Ac(a2-3)Gal(b1-4)[Fuc(a1-3)]GlcNAc(b1-2)Man
# Procedure, shortened: as §1
# [8] = molecular target: Neu5Ac(a2-3)Gal(b1-4)[Fuc(a1-3)]GlcNAc(b1-3)Gal
# Procedure, shortened: as §1
# [9] = molecular target: Neu5Ac(a2-3)Gal(b1-4)[Fuc(a1-3)]GlcNAc(b1-3)Gal(b1-4)GlcNAc
# Procedure, shortened: as §1
# [10] = molecular target: Neu5Ac(a2-3)Gal(b1-4)[Fuc(a1-3)]GlcNAc(b1-3)Gal(b1-4)[Fuc(a1-3)]GlcNAc(b1-3)Gal(b1-4)[Fuc(a1-3)]GlcNAc
# Procedure, shortened: as §1
# [11] = molecular target: Neu5Ac(a2-3)Gal(b1-4)[Fuc(a1-3)]GlcNAc(b1-3)GalNAc
# Procedure, shortened: as §1
# [12] = molecular target: Neu5Ac(a2-3)Gal(b1-4)[Fuc(a1-3)]GlcNAc(b1-6)[Gal(b1-3)]GalNAc
# Procedure, shortened: as §1
# [13] = molecular target: Neu5Ac(a2-3)Gal(b1-4)[Fuc(a1-3)]GlcNAc(b1-6)[Neu5Ac(a2-3)Gal(b1-3)]GalNAc
# Procedure, shortened: as §1
# [14] = molecular target: Neu5Ac(a2-3)Gal(b1-4)[Fuc(a1-3)]GlcNAc6S
# Procedure, shortened: as §1
# [15] = molecular target: Neu5Ac(a2-3)Gal6S(b1-4)GlcNAc
# Procedure, shortened: as §1
# [16] = molecular target: Neu5Ac(a2-3)Gal6S(b1-4)[Fuc(a1-3)]GlcNAc
# Procedure, shortened: as §1
# Neu5Ac(a2-3)GalNAc = molecular target: Neu5Ac(a2-3)GalNAc
# Procedure, shortened: as §1
# [17] = molecular target: Neu5Ac(a2-3)GalNAc(b1-4)GlcNAc
# Procedure, shortened: as §1
# [18] = molecular target: Neu5Ac(a2-3)[GalNAc(b1-4)]Gal(b1-4)Glc
# Procedure, shortened: as §1
# [19] = molecular target: Neu5Ac(a2-3)[GalNAc(b1-4)]Gal(b1-4)GlcNAc
# Procedure, shortened: as §1
# [20] = molecular target: Neu5Ac(a2-3)[GalNAc(b1-4)]Gal(b1-4)GlcNAc(b1-3)GalNAc
# Procedure, shortened: as §1
# [21] = molecular target: Neu5Ac(a2-3)[Neu5Ac(a2-6)]GalNAc
# Procedure, shortened: as §1
# Neu5Ac(a2-6)Gal = molecular target: Neu5Ac(a2-6)Gal
# Procedure, shortened: as §1
# [22] = molecular target: Neu5Ac(a2-6)Gal(b1-3)GlcNAc(b1-3)[Gal(b1-4)GlcNAc(b1-6)]Gal(b1-4)Glc
# Procedure, shortened: as §1
# Neu5Ac(a2-6)Gal(b1-4)Glc = molecular target: Neu5Ac(a2-6)Gal(b1-4)Glc
# Procedure, shortened: as §1
# [23] = molecular target: Neu5Ac(a2-6)Gal(b1-4)GlcNAc
# Procedure, shortened: as §1
# [24] = molecular target: Neu5Ac(a2-6)Gal(b1-4)GlcNAc(b1-2)Man
# Procedure, shortened: as §1
# [25] = molecular target: Neu5Ac(a2-6)Gal(b1-4)GlcNAc(b1-2)Man(a1-3)Man(b1-4)GlcNAc(b1-4)GlcNAc
# Procedure, shortened: as §1
# [26] = molecular target: Neu5Ac(a2-6)Gal(b1-4)GlcNAc(b1-2)Man(a1-3)[Gal(b1-4)GlcNAc(b1-2)Man(a1-6)]Man(b1-4)GlcNAc(b1-4)GlcNAc
# Procedure, shortened: as §1
# [27] = molecular target: Neu5Ac(a2-6)Gal(b1-4)GlcNAc(b1-2)Man(a1-3)[GlcNAc(b1-2)Man(a1-6)]Man(b1-4)GlcNAc(b1-4)GlcNAc
# Procedure, shortened: as §1
# [28] = molecular target: Neu5Ac(a2-6)Gal(b1-4)GlcNAc(b1-2)Man(a1-3)[GlcNAc(b1-4)][Neu5Ac(a2-6)Gal(b1-4)GlcNAc(b1-2)Man(a1-6)]Man(b1-4)GlcNAc(b1-4)GlcNAc
# Procedure, shortened: as §1
# [29] = molecular target: Neu5Ac(a2-6)Gal(b1-4)GlcNAc(b1-2)Man(a1-3)[Man(a1-6)]Man(b1-4)GlcNAc(b1-4)GlcNAc
# Procedure, shortened: as §1
# [30] = molecular target: Neu5Ac(a2-6)Gal(b1-4)GlcNAc(b1-2)Man(a1-3)[Neu5Ac(a2-3)Gal(b1-4)GlcNAc(b1-2)Man(a1-6)]Man(b1-4)GlcNAc(b1-4)GlcNAc
# Procedure, shortened: as §1
# [31] = molecular target: Neu5Ac(a2-6)Gal(b1-4)GlcNAc(b1-2)Man(a1-3)[Neu5Ac(a2-6)Gal(b1-4)GlcNAc(b1-2)Man(a1-6)]Man(b1-4)GlcNAc(b1-4)GlcNAc
# Procedure, shortened: as §1
# [32] = molecular target: Neu5Ac(a2-6)Gal(b1-4)GlcNAc(b1-2)Man(a1-3)[Neu5Ac(a2-6)Gal(b1-4)GlcNAc(b1-2)Man(a1-6)]Man(b1-4)GlcNAc(b1-4)[Fuc(a1-6)]GlcNAc
# Procedure, shortened: as §1
# [33] = molecular target: Neu5Ac(a2-6)Gal(b1-4)GlcNAc(b1-2)Man(a1-6)Man(b1-4)GlcNAc(b1-4)GlcNAc
# Procedure, shortened: as §1
# [34] = molecular target: Neu5Ac(a2-6)Gal(b1-4)GlcNAc(b1-2)Man(a1-6)[Gal(b1-4)GlcNAc(b1-2)Man(a1-3)]Man(b1-4)GlcNAc(b1-4)GlcNAc
# Procedure, shortened: as §1
# [35] = molecular target: Neu5Ac(a2-6)Gal(b1-4)GlcNAc(b1-2)Man(a1-6)[GlcNAc(b1-2)Man(a1-3)]Man(b1-4)GlcNAc(b1-4)GlcNAc
# Procedure, shortened: as §1
# [36] = molecular target: Neu5Ac(a2-6)Gal(b1-4)GlcNAc(b1-2)Man(a1-6)[Man(a1-3)]Man(b1-4)GlcNAc(b1-4)GlcNAc
# Procedure, shortened: as §1
# [37] = molecular target: Neu5Ac(a2-6)Gal(b1-4)GlcNAc(b1-2)[Neu5Ac(a2-6)Gal(b1-4)GlcNAc(b1-4)]Man(a1-3)[GlcNAc(b1-4)][Neu5Ac(a2-6)Gal(b1-4)GlcNAc(b1-2)[Neu5Ac(a2-6)Gal(b1-4)GlcNAc(b1-6)]Man(a1-6)]Man(b1-4)GlcNAc(b1-4)GlcNAc
# Procedure, shortened: as §1
# [38] = molecular target: Neu5Ac(a2-6)Gal(b1-4)GlcNAc(b1-2)[Neu5Ac(a2-6)Gal(b1-4)GlcNAc(b1-4)]Man(a1-3)[GlcNAc(b1-4)][Neu5Ac(a2-6)Gal(b1-4)GlcNAc(b1-4)Man(a1-6)]Man(b1-4)GlcNAc(b1-4)GlcNAc
# Procedure, shortened: as §1
# [39] = molecular target: Neu5Ac(a2-6)Gal(b1-4)GlcNAc(b1-2)[Neu5Ac(a2-6)Gal(b1-4)GlcNAc(b1-6)]Man(a1-6)[Neu5Ac(a2-6)Gal(b1-4)GlcNAc(b1-2)Man(a1-3)][GlcNAc(b1-4)]Man(b1-4)GlcNAc(b1-4)GlcNAc
# Procedure, shortened: as §1
# [40] = molecular target: Neu5Ac(a2-6)Gal(b1-4)GlcNAc(b1-3)Gal(b1-3)GlcNAc
# Procedure, shortened: as §1
# [41] = molecular target: Neu5Ac(a2-6)Gal(b1-4)GlcNAc(b1-3)Gal(b1-4)GlcNAc
# Procedure, shortened: as §1
# [42] = molecular target: Neu5Ac(a2-6)Gal(b1-4)GlcNAc(b1-3)Gal(b1-4)GlcNAc(b1-2)Man(a1-3)[Neu5Ac(a2-6)Gal(b1-4)GlcNAc(b1-3)Gal(b1-4)GlcNAc(b1-2)Man(a1-6)]GalNAc
# Procedure, shortened: as §1
# [43] = molecular target: Neu5Ac(a2-6)Gal(b1-4)GlcNAc(b1-3)Gal(b1-4)GlcNAc(b1-3)Gal(b1-4)GlcNAc
# Procedure, shortened: as §1
binder,measurement,setting,value
B1,glycan array binding signal (z-score),[1],-0.156
same,glycan array binding signal (z-score),[2],-0.062
same,glycan array binding signal (z-score),[3],0.921
same,glycan array binding signal (z-score),[4],-0.207
same,glycan array binding signal (z-score),[5],-0.262
same,glycan array binding signal (z-score),[6],-0.335
same,glycan array binding signal (z-score),[7],-0.012
same,glycan array binding signal (z-score),[8],-0.323
same,glycan array binding signal (z-score),[9],0.105
same,glycan array binding signal (z-score),[10],-0.263
same,glycan array binding signal (z-score),[11],0.344
same,glycan array binding signal (z-score),[12],0.355
same,glycan array binding signal (z-score),[13],0.037
same,glycan array binding signal (z-score),[14],-0.194
same,glycan array binding signal (z-score),[15],-0.119
same,glycan array binding signal (z-score),[16],-0.344
same,glycan array binding signal (z-score),Neu5Ac(a2-3)GalNAc,-0.308
same,glycan array binding signal (z-score),[17],-0.373
same,glycan array binding signal (z-score),[18],-0.327
same,glycan array binding signal (z-score),[19],-0.199
same,glycan array binding signal (z-score),[20],0.265
same,glycan array binding signal (z-score),[21],-0.458
same,glycan array binding signal (z-score),Neu5Ac(a2-6)Gal,-0.199
same,glycan array binding signal (z-score),[22],-0.186
same,glycan array binding signal (z-score),Neu5Ac(a2-6)Gal(b1-4)Glc,-0.237
same,glycan array binding signal (z-score),[23],-0.303
same,glycan array binding signal (z-score),[24],-0.384
same,glycan array binding signal (z-score),[25],-0.147
same,glycan array binding signal (z-score),[26],-0.331
same,glycan array binding signal (z-score),[27],-0.308
same,glycan array binding signal (z-score),[28],-0.306
same,glycan array binding signal (z-score),[29],-0.211
same,glycan array binding signal (z-score),[30],-0.414
same,glycan array binding signal (z-score),[31],-0.145
same,glycan array binding signal (z-score),[32],-0.168
same,glycan array binding signal (z-score),[33],-0.322
same,glycan array binding signal (z-score),[34],-0.325
same,glycan array binding signal (z-score),[35],-0.327
same,glycan array binding signal (z-score),[36],-0.384
same,glycan array binding signal (z-score),[37],-0.321
same,glycan array binding signal (z-score),[38],-0.072
same,glycan array binding signal (z-score),[39],-0.272
same,glycan array binding signal (z-score),[40],-0.166
same,glycan array binding signal (z-score),[41],-0.267
same,glycan array binding signal (z-score),[42],0.213
same,glycan array binding signal (z-score),[43],-0.327
